Results reported in the supplement of paper PMC3334620.
In all, about 33,000 sequences were measured (“E-score (-0.5 to 0.5)”: median about -0.032, highest 2% from about 0.36 on). This is one part of the list.

The sequences below were run against T1, Sko1 (UniProt Q02100) (assay: PBM E-score (8-mer binding enrichment) (E-score (-0.5 to 0.5)); higher = stronger / more preferred TF binding; most listed sequences are background and not binding sites). Settings: protein concentration: 200 nM; construct: GST-full length.
T1 sequence: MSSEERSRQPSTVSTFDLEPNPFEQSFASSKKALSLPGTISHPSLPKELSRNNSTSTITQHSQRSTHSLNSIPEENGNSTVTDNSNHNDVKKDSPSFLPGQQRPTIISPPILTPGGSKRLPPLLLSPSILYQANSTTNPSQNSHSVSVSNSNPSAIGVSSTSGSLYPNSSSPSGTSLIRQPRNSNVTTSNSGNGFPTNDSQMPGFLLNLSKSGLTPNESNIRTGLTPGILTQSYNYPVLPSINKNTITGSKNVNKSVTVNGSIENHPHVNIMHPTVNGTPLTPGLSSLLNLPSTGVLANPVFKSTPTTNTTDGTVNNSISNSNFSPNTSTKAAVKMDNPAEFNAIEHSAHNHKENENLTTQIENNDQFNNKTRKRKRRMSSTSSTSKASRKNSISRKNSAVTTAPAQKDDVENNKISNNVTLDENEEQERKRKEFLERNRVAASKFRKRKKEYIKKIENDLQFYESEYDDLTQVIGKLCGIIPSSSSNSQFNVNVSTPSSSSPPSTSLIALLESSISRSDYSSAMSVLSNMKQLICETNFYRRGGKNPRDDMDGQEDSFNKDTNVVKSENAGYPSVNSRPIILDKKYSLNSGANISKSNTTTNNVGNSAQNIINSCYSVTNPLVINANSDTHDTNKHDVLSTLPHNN
Method in brief: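 The E-score, a modified Wilcoxon-Mann-Whitney statistic, was computed by the Universal PBM Analysis Suite for every ungapped eight-base word pooled with its reverse complement. Scans behind it were normalised with masliner after bound GST-tagged yeast transcription factors were detected with fluorescent anti-GST. The proteins, at about 100-200 nM, had been applied to universal all-10-mer Agilent arrays made double-stranded by primer extension.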

Sequence | PBM E-score
CTTGTGGA | -0.159
CGCGTTTA | 0.103
AAGGAGAC | -0.0673
ACGGCCGC | -0.265
GGAAGGGA | -0.287
AGAAGGGA | -0.196
GGAGGTTA | -0.204
AAACAACT | 0.0554
GCCGAGCA | -0.209
GTATATCA | 0.311
AAAGAGGA | -0.291
CGGTCAGC | -0.369
AAATTAGC | -0.0567
CACCTCCC | -0.238
TTCTGAAA | 0.0361
CATTTGCC | -0.271
ATACTGTA | 0.0855
GACGTCTA | 0.358
ACAACCGG | -0.197
CGAGTACC | -0.0647
AGGCGCAC | -0.0624
AATGATAC | 0.193

Sequence | PBM E-score
CACTTCAA | 0.0988
CACTGATC | -0.128
CGCCCTTA | -0.134
CCTGAAAC | 0.0107
CTTTACCC | -0.0701
CGGCATGA | 0.11
CATATTCA | 0.159
AGGGTGAA | -0.146
CTGCGTGC | 0.00792
CCCTGCTC | -0.312
GGAGACCA | -0.312
CTCTAGGC | -0.274
CCGGACGG | -0.234
ATACGTGG | 0.429
GGTTTGAC | 0.0235
CGTAGAAG | 0.18
TAAATCCA | 0.1
ACTACGAC | 0.181
ATATCTGG | -0.308
CTTCATTC | -0.0754
CTCCGCAG | -0.185
GCATATAA | 0.121

Sequence | PBM E-score
CTCGCTCA | -0.072
CACATTGC | 0.0893
CTGCCTTA | -0.107
ATCGGATA | 0.0265
CGTGATCC | 0.171
CACCCTAC | 0.0999
CTGGCGCC | -0.181
CGGGGAGA | -0.286
CCCTAAAG | -0.213
CTGAGCTC | -0.133
AAGCAAGG | -0.226
TACCAGGA | -0.175
AACCTCAG | -0.157
TAAAGTCA | -0.0259
ATGTAGCA | -0.0391
TTAGTGAA | -0.00461
ACTATATG | 0.0826
AGAATCGG | -0.0821
CAAGGCCC | -0.291
CAAAAGAC | 0.0114
GATGCCCA | 0.0393
GAGGATGC | -0.137

Sequence | PBM E-score
TATTGCAA | 0.014
CGCAAAAG | 0.124
CGTACCTA | 0.164
CGACTCAC | -0.109
CATATCCC | -0.0572
GGAAGCAC | 0.0625
AGGGGAAT | -0.0405
CTAGAGAA | -0.095
CTTAGAGA | -0.129
CCCCTTCC | -0.201
ACTAAAGG | -0.0392
ATTCACAA | 0.245
GAATGGGC | -0.224
CGCACGCG | 0.136
CAGAGCAC | -0.113
GATCTGGC | 0.0354
GGGGGCAC | -0.26
ATCGGTGG | -0.127
ATCCGATG | -0.0255
AGGGCCCA | -0.411
ACCCATCA | -0.054
AACTGGCT | -0.00996

Sequence | PBM E-score
AGAGCGGG | -0.328
CGAAGGCC | -0.321
AAAAGGCG | -0.037
GATAAGGC | -0.0671
AATAAATC | 0.0368
CCTAATCC | -0.11
GAGTTGAA | -0.0752
CTTCCCGC | -0.0138
CATACGAA | 0.308
GTCCCCTA | -0.169
AGTGAACT | -0.0716
CCATAAGG | -0.224
AATCGGCG | -0.0909
TAAGGTCA | 0.0163
ACGTCGCT | 0.308
CACTGCAA | 0.0303
GGTTCCAC | -0.283
CGCCCGGA | -0.211
AGTTTCCG | -0.0487
CAGTCTAG | -0.246
ATTGGGCA | -0.079
ACGGCCCA | -0.317
